{"source": "the supplement of paper PMC8728848", "binders": {"B1": {"name": "VLRB.aGPA.23-GCN4-biotin (Petromyzon marinus) (protein)", "chain": "ACPSQCSCSGTEVNCAGKSLASVPAGIPTTTRVLYLNSNQITKLEPGVFDRLANLRELHLWGNQLVSLPPGVFDNLANLEKLWLNSNQLTSLPAGLFDRLVNLEHLGLCCMKLTELPSGAFDKLTRLKQLGLDQNQLKSIPDGAFARLPSLTHVWLHTNPWDCQCTDILYLSGWVAQHSSIVGEGWPWRHSPDSAKCSGTNTPVRAVTEASTSPSKCP"}}, "assay_in_all_cases": "glycan array binding signal (z-score within array); higher = stronger binding", "details_in_all_cases": "glycan notation: IUPAC condensed, linker removed", "key": {"[1]": {"molecular_target": "GlcNAc(a1-6)Gal(b1-4)GlcNAc", "procedure,_shortened": "(§1)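 Arrays were curated from the Consortium for Functional Glycomics database, 3228 in total, and kept only where the protein sequence was available. Binding is expressed as a within-array Z-score. This score was averaged across arrays of the same protein sequence at different concentrations or buffers and across linkers, and negative values can be read as non-binding.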"}, "[2]": {"molecular_target": "GlcNAc(b1-2)Gal(b1-3)GalNAc", "procedure,_shortened": "as §1"}, "[3]": {"molecular_target": "GlcNAc(b1-2)Man(a1-3)[GlcNAc(b1-2)Man(a1-6)]Man(b1-4)GlcNAc(b1-4)GlcNAc", "procedure,_shortened": "as §1"}, "[4]": {"molecular_target": "GlcNAc(b1-2)Man(a1-3)[GlcNAc(b1-2)Man(a1-6)]Man(b1-4)GlcNAc(b1-4)[Fuc(a1-6)]GlcNAc", "procedure,_shortened": "as §1"}, "[5]": {"molecular_target": "GlcNAc(b1-2)Man(a1-3)[GlcNAc(b1-4)][GlcNAc(b1-2)Man(a1-6)]Man(b1-4)GlcNAc(b1-4)GlcNAc", "procedure,_shortened": "as §1"}, "[6]": {"molecular_target": "GlcNAc(b1-2)Man(a1-3)[GlcNAc(b1-4)][GlcNAc(b1-2)Man(a1-6)]Man(b1-4)GlcNAc(b1-4)[Fuc(a1-6)]GlcNAc", "procedure,_shortened": "as §1"}, "[7]": {"molecular_target": "GlcNAc(b1-2)[GlcNAc(b1-4)]Man(a1-3)[GlcNAc(b1-2)Man(a1-6)]Man(b1-4)GlcNAc(b1-4)GlcNAc", "procedure,_shortened": "as §1"}, "[8]": {"molecular_target": "GlcNAc(b1-2)[GlcNAc(b1-4)]Man(a1-3)[GlcNAc(b1-4)][GlcNAc(b1-2)Man(a1-6)]Man(b1-4)GlcNAc(b1-4)GlcNAc", "procedure,_shortened": "as §1"}, "[9]": {"molecular_target": "GlcNAc(b1-2)[GlcNAc(b1-4)]Man(a1-3)[GlcNAc(b1-4)][GlcNAc(b1-2)[GlcNAc(b1-6)]Man(a1-6)]Man(b1-4)GlcNAc(b1-4)GlcNAc", "procedure,_shortened": "as §1"}, "[10]": {"molecular_target": "GlcNAc(b1-2)[GlcNAc(b1-4)]Man(a1-3)[GlcNAc(b1-4)][GlcNAc(b1-2)[GlcNAc(b1-6)]Man(a1-6)]Man(b1-4)GlcNAc(b1-4)[Fuc(a1-6)]GlcNAc", "procedure,_shortened": "as §1"}, "[11]": {"molecular_target": "GlcNAc(b1-2)[GlcNAc(b1-6)]Man(a1-6)[GlcNAc(b1-2)Man(a1-3)]Man(b1-4)GlcNAc(b1-4)GlcNAc", "procedure,_shortened": "as §1"}, "[12]": {"molecular_target": "GlcNAc(b1-2)[GlcNAc(b1-6)]Man(a1-6)[GlcNAc(b1-2)Man(a1-3)]Man(b1-4)GlcNAc(b1-4)[Fuc(a1-6)]GlcNAc", "procedure,_shortened": "as §1"}, "[13]": {"molecular_target": "GlcNAc(b1-2)[GlcNAc(b1-6)]Man(a1-6)[GlcNAc(b1-4)][GlcNAc(b1-2)Man(a1-3)]Man(b1-4)GlcNAc(b1-4)GlcNAc", "procedure,_shortened": "as §1"}, "[14]": {"molecular_target": "GlcNAc(b1-3)Fuc", "procedure,_shortened": "as §1"}, "[15]": {"molecular_target": "GlcNAc(b1-3)Gal", "procedure,_shortened": "as §1"}, "[16]": {"molecular_target": "GlcNAc(b1-3)Gal(b1-3)GalNAc", "procedure,_shortened": "as §1"}, "[17]": {"molecular_target": "GlcNAc(b1-3)Gal(b1-4)Glc", "procedure,_shortened": "as §1"}, "[18]": {"molecular_target": "GlcNAc(b1-3)Gal(b1-4)GlcNAc", "procedure,_shortened": "as §1"}, "[19]": {"molecular_target": "GlcNAc(b1-3)Gal(b1-4)GlcNAc(b1-2)Man(a1-3)[GlcNAc(b1-3)Gal(b1-4)GlcNAc(b1-2)Man(a1-6)]Man(b1-4)GlcNAc(b1-4)GlcNAc", "procedure,_shortened": "as §1"}, "[20]": {"molecular_target": "GlcNAc(b1-3)Gal(b1-4)GlcNAc(b1-2)Man(a1-3)[GlcNAc(b1-3)Gal(b1-4)GlcNAc(b1-2)Man(a1-6)]Man(b1-4)GlcNAc(b1-4)[Fuc(a1-6)]GlcNAc", "procedure,_shortened": "as §1"}, "[21]": {"molecular_target": "GlcNAc(b1-3)Gal(b1-4)GlcNAc(b1-2)[GlcNAc(b1-3)Gal(b1-4)GlcNAc(b1-6)]Man(a1-6)[GlcNAc(b1-3)Gal(b1-4)GlcNAc(b1-2)Man(a1-3)]Man(b1-4)GlcNAc(b1-4)GlcNAc", "procedure,_shortened": "as §1"}, "[22]": {"molecular_target": "GlcNAc(b1-3)Gal(b1-4)GlcNAc(b1-3)Gal(b1-4)GlcNAc", "procedure,_shortened": "as §1"}, "[23]": {"molecular_target": "GlcNAc(b1-3)Gal(b1-4)GlcNAc(b1-3)Gal(b1-4)GlcNAc(b1-2)Man(a1-3)[GlcNAc(b1-3)Gal(b1-4)GlcNAc(b1-3)Gal(b1-4)GlcNAc(b1-2)Man(a1-6)]Man(b1-4)GlcNAc(b1-4)GlcNAc", "procedure,_shortened": "as §1"}, "[24]": {"molecular_target": "GlcNAc(b1-3)Gal(b1-4)GlcNAc(b1-3)Gal(b1-4)GlcNAc(b1-2)Man(a1-3)[GlcNAc(b1-3)Gal(b1-4)GlcNAc(b1-3)Gal(b1-4)GlcNAc(b1-2)Man(a1-6)]Man(b1-4)GlcNAc(b1-4)[Fuc(a1-6)]GlcNAc", "procedure,_shortened": "as §1"}, "[25]": {"molecular_target": "GlcNAc(b1-3)Gal(b1-4)GlcNAc(b1-3)Gal(b1-4)GlcNAc(b1-2)[GlcNAc(b1-3)Gal(b1-4)GlcNAc(b1-3)Gal(b1-4)GlcNAc(b1-6)]Man(a1-6)[GlcNAc(b1-3)Gal(b1-4)GlcNAc(b1-3)Gal(b1-4)GlcNAc(b1-2)Man(a1-3)]Man(b1-4)GlcNAc(b1-4)[Fuc(a1-6)]GlcNAc", "procedure,_shortened": "as §1"}, "[26]": {"molecular_target": "GlcNAc(b1-3)Gal(b1-4)GlcNAc(b1-3)Gal(b1-4)GlcNAc(b1-3)Gal(b1-4)GlcNAc(b1-2)Man(a1-3)[GlcNAc(b1-3)Gal(b1-4)GlcNAc(b1-3)Gal(b1-4)GlcNAc(b1-3)Gal(b1-4)GlcNAc(b1-2)Man(a1-6)]Man(b1-4)GlcNAc(b1-4)GlcNAc", "procedure,_shortened": "as §1"}}, "note": "The other results are listed elsewhere or left out.", "data": [{"binder": "B1", "values": [{"measurement": "glycan array binding signal (z-score)", "setting": "[1]", "value": -0.087}, {"measurement": "glycan array binding signal (z-score)", "setting": "[2]", "value": -0.053}, {"measurement": "glycan array binding signal (z-score)", "setting": "[3]", "value": -0.082}, {"measurement": "glycan array binding signal (z-score)", "setting": "[4]", "value": -0.072}, {"measurement": "glycan array binding signal (z-score)", "setting": "[5]", "value": -0.078}, {"measurement": "glycan array binding signal (z-score)", "setting": "[6]", "value": -0.088}, {"measurement": "glycan array binding signal (z-score)", "setting": "[7]", "value": -0.08}, {"measurement": "glycan array binding signal (z-score)", "setting": "[8]", "value": -0.085}, {"measurement": "glycan array binding signal (z-score)", "setting": "[9]", "value": -0.087}, {"measurement": "glycan array binding signal (z-score)", "setting": "[10]", "value": -0.085}, {"measurement": "glycan array binding signal (z-score)", "setting": "[11]", "value": -0.079}, {"measurement": "glycan array binding signal (z-score)", "setting": "[12]", "value": -0.075}, {"measurement": "glycan array binding signal (z-score)", "setting": "[13]", "value": -0.085}, {"measurement": "glycan array binding signal (z-score)", "setting": "[14]", "value": -0.079}, {"measurement": "glycan array binding signal (z-score)", "setting": "[15]", "value": -0.077}, {"measurement": "glycan array binding signal (z-score)", "setting": "[16]", "value": -0.075}, {"measurement": "glycan array binding signal (z-score)", "setting": "[17]", "value": -0.076}, {"measurement": "glycan array binding signal (z-score)", "setting": "[18]", "value": -0.085}, {"measurement": "glycan array binding signal (z-score)", "setting": "[19]", "value": -0.079}, {"measurement": "glycan array binding signal (z-score)", "setting": "[20]", "value": -0.074}, {"measurement": "glycan array binding signal (z-score)", "setting": "[21]", "value": -0.058}, {"measurement": "glycan array binding signal (z-score)", "setting": "[22]", "value": -0.078}, {"measurement": "glycan array binding signal (z-score)", "setting": "[23]", "value": -0.043}, {"measurement": "glycan array binding signal (z-score)", "setting": "[24]", "value": -0.072}, {"measurement": "glycan array binding signal (z-score)", "setting": "[25]", "value": -0.064}, {"measurement": "glycan array binding signal (z-score)", "setting": "[26]", "value": -0.076}]}]}
